The chains are these.
B1: TNP1, P09430 (protein)
chain: MSTSRKLKSHGMRRSKSRSPHKGVKRGGSKRKYRKGNLKSRKRGDDANRNYRSHL
B2: LRRC42, Q9Y546 (protein)
chain: MSYYLSSENHLDPGPIYMRENGQLHMVNLALDGVRSSLQKPRPFRLFPKGFSVELCMNREDDTARKEKTDHFIFTYTREGNLRYSAKSLFSLVLGFISDNVDHIDSLIGFPEQIAEKLFSAAEARQKFTEPGAGLRALQKFTEAYGSLVLCSLCLRNRYLVISEKLEEIKSFRELTCLDLSCCKLGDEHELLEHLTNEALSSVTQLHLKDNCLSDAGVRKMTAPVRVMKRGLENLTLLDLSCNPEITDAGIGYLFSFRKLNCLDISGTGLKDIKTVKHKLQTHIGLVHSKVPLKEFDHSNCKTEGWADQIVLQWERVTAEAVKPRETSEPRAAAQRFYGKRSRAEAPLKCPLADTHMNSSEKLQFYKEKAPDCHGPVLKHEAISSQESKKSKKRPFEESETEQNNSSQPSKQKYVCLAVEDWDLLNSY
B3: TPPP2, P59282 (protein)
chain: MASEAEKTFHRFAAFGESSSSGTEMNNKNFSKLCKDCGIMDGKTVTSTDVDIVFSKVKAKNARTITFQQFKEAVKELGQKRFKGKSPDEVLENIYGLMEGKDPATTGATKATTVGAVDRLTDTSKYTGTHKERFDESGKGKGIAGREEMTDNTGYVSGYKGSGTYDKKTK
B4: PLSCR1, O15162 (protein)
chain: MDKQNSQMNASHPETNLPVGYPPQYPPTAFQGPPGYSGYPGPQVSYPPPPAGHSGPGPAGFPVPNQPVYNQPVYNQPVGAAGVPWMPAPQPPLNCPPGLEYLSQIDQILIHQQIELLEVLTGFETNNKYEIKNSFGQRVYFAAEDTDCCTRNCCGPSRPFTLRIIDNMGQEVITLERPLRCSSCCCPCCLQEIEIQAPPGVPIGYVIQTWHPCLPKFTIQNEKREDVLKISGPCVVCSCCGDVDFEIKSLDEQCVVGKISKHWTGILREAFTDADNFGIQFPLDLDVKMKAVMIGACFLIDFMFFESTGSQEQKSGVW
B5: FMO1, Q01740 (protein)
chain: MAKRVAIVGAGVSGLASIKCCLEEGLEPTCFERSDDLGGLWRFTEHVEEGRASLYKSVVSNSCKEMSCYSDFPFPEDYPNYVPNSQFLEYLKMYANHFDLLKHIQFKTKVCSVTKCSDSAVSGQWEVVTMHEEKQESAIFDAVMVCTGFLTNPYLPLDSFPGINAFKGQYFHSRQYKHPDIFKDKRVLVIGMGNSGTDIAVEASHLAEKVFLSTTGGGWVISRIFDSGYPWDMVFMTRFQNMLRNSLPTPIVTWLMERKINNWLNHANYGLIPEDRTQLKEFVLNDELPGRIITGKVFIRPSIKEVKENSVIFNNTSKEEPIDIIVFATGYTFAFPFLDESVVKVEDGQASLYKYIFPAHLQKPTLAIIGLIKPLGSMIPTGETQARWAVRVLKGVNKLPPPSVMIEEINARKENKPSWFGLCYCKALQSDYITYIDELLTYINAKPNLFSMLLTDPHLALTVFFGPCSPYQFRLTGPGKWEGARNAIMTQWDRTFKVIKARVVQESPSPFESFLKVFSFLALLVAIFLIFL

Some of the results follow. Interaction screen of human proteins with wild-type SARS-CoV-2 proteins by split-DHFR complementation in yeast, 1 µg/mL methotrexate. Value = fitness of the pair (three or more lineages) minus that of the viral protein without a human partner, on a scale set by negative (0) and fused positive (1) controls, mean of up to three cultures; higher = more likely to interact. Active = false discovery rate below 0.05 (one-sided t-test) in at least one culture. Nearly all pairs are not hits, and differences among them are mostly noise (correlation between cultures about 0.3); most hits were seen in one culture only. Human sequences are the Swiss-Prot entries looked up by gene name; the clone may be another isoform. NSP2 values were corrected by the authors for a growth advantage. Listed are human proteins with a hit and a random twelfth of the others.

The first experiment addresses SARS-CoV-2 M. In words: yeast fitness gain over the viral ORF with no human partner (scaled fitness); higher = more likely to interact. As to the method: (§1)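 Split mouse DHFR complementation in pooled diploid yeast: human ORFeome clones carry one fragment and viral ORFs the other; barcoded lineages compete in 1 µg/mL methotrexate and fitness is read by barcode sequencing in up to three cultures.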
For the molecule B1, the yeast fitness gain was inactive: 0.00736.

For the molecule B2, the yeast fitness gain is inactive: -0.0635.

For the molecule B3, the yeast fitness gain is inactive: 0.0202.

Regarding B4, the yeast fitness gain is inactive: 0.0522.

Take B5: the yeast fitness gain was inactive: 0.119.

In a further experiment the target is SARS-CoV-2 NSP1. The description is as above. As to the method: as §1
With B1, the yeast fitness gain is inactive: 0.0786.

Another experiment addresses SARS-CoV-2 NSP10. The experiment is described as above. On the procedure:
as §1
Take B1: the yeast fitness gain was inactive: 0.0424.

For the molecule B2, the yeast fitness gain was inactive: 0.121.

Turning to B3, the yeast fitness gain was inactive: 0.108.

In the case of B4, the yeast fitness gain is inactive: -0.0909.

For the molecule B5, the yeast fitness gain is inactive: 0.0362.

A further experiment addresses SARS-CoV-2 NSP12. The description is as above. On the procedure:
as §1
Consider B1, for which the yeast fitness gain was inactive: 0.033.

B2: the yeast fitness gain was inactive: -0.179.

Turning to B3, the yeast fitness gain was inactive: 0.0487.

As to B4, the yeast fitness gain is inactive: -0.236.

Take B5: the yeast fitness gain was inactive: -0.369.

For a further experiment, the target named is SARS-CoV-2 NSP13. The experiment is described as above. On the procedure:
as §1
Take B1: the yeast fitness gain was inactive: 0.00908.

Consider B2, for which the yeast fitness gain was inactive: 0.0447.

As to B3, the yeast fitness gain is inactive: -0.00969.

In the case of B4, the yeast fitness gain was inactive: 0.0473.

On to B5, for which the yeast fitness gain is inactive: -0.231.

A further experiment concerns the target SARS-CoV-2 NSP15. Described as above. On the procedure:
as §1
On to B1, for which the yeast fitness gain was inactive: 0.0725.

For a further experiment, the target named is SARS-CoV-2 NSP2. The description is as above. As to the method: as §1
Take B1: the yeast fitness gain was inactive: -0.0749.

As to B2, the yeast fitness gain was inactive: -0.271.

Take B3: the yeast fitness gain was active: 0.392.

For the molecule B4, the yeast fitness gain was inactive: -0.152.

As to B5, the yeast fitness gain was inactive: -0.0509.

The next experiment has as its target SARS-CoV-2 NSP4. Described as above. On the procedure:
as §1
As for B1, the yeast fitness gain is inactive: -0.123.

In a further experiment the target is SARS-CoV-2 NSP5. The description is as above. On the procedure: as §1
With B1, the yeast fitness gain is inactive: -0.0973.

With B2, the yeast fitness gain is inactive: -0.0161.

B3: the yeast fitness gain is inactive: -0.109.

In another experiment the target is SARS-CoV-2 NSP6. The description is as above. On the procedure: as §1
Turning to B1, the yeast fitness gain is inactive: 0.00389.

Turning to B3, the yeast fitness gain was inactive: 0.0692.

The target in the next experiment is SARS-CoV-2 NSP7. The description is as above. On the procedure: as §1
On to B1, for which the yeast fitness gain is inactive: 0.0101.

Regarding B2, the yeast fitness gain is inactive: -0.173.

Regarding B3, the yeast fitness gain was inactive: -0.0462.

In the next experiment the target is SARS-CoV-2 NSP8. Described as above. As to the method: as §1
On to B1, for which the yeast fitness gain is inactive: 0.0302.

In the case of B3, the yeast fitness gain is inactive: -0.0596.

The next experiment deals with SARS-CoV-2 ORF10. The experiment is described as above. On the procedure:
as §1
In the case of B1, the yeast fitness gain was inactive: 0.0925.

Consider B2, for which the yeast fitness gain is inactive: 0.0464.

For B3, the yeast fitness gain is inactive: -0.0165.

For another experiment, the target named is SARS-CoV-2 ORF3B. Described as above. As to the method: as §1
For B1, the yeast fitness gain was inactive: -0.0157.

B2: the yeast fitness gain was inactive: 0.0187.

As to B3, the yeast fitness gain is inactive: 0.0546.

In the case of B4, the yeast fitness gain is inactive: 0.0158.

With B5, the yeast fitness gain was inactive: -0.0252.

Another experiment addresses SARS-CoV-2 ORF6. The description is as above. As to the method:
as §1
For the molecule B1, the yeast fitness gain is inactive: 0.0715.

As for B2, the yeast fitness gain is inactive: -0.0362.

For B3, the yeast fitness gain was inactive: 0.1.

On to B4, for which the yeast fitness gain is inactive: 0.0455.

On to B5, for which the yeast fitness gain was inactive: -0.243.

The target in a further experiment is SARS-CoV-2 ORF7A. The experiment is described as above. As to the method: as §1
Take B1: the yeast fitness gain was inactive: -0.148.

As to B2, the yeast fitness gain is inactive: -0.0455.

Regarding B3, the yeast fitness gain is inactive: 0.0875.

Another experiment deals with SARS-CoV-2 ORF7B. Described as above. On the procedure:
as §1
As for B1, the yeast fitness gain is inactive: -0.0094.

For B2, the yeast fitness gain was inactive: -0.0228.

Turning to B3, the yeast fitness gain is inactive: -0.117.

The target of a further experiment is SARS-CoV-2 ORF8. Described as above. As to the method:
as §1
In the case of B1, the yeast fitness gain was inactive: -0.0217.

Turning to B2, the yeast fitness gain is inactive: 0.0388.

Consider B3, for which the yeast fitness gain is inactive: -0.0115.

Turning to B4, the yeast fitness gain was inactive: -0.00231.

With B5, the yeast fitness gain is inactive: 0.0115.

The target in the next experiment is SARS-CoV-2 ORF9B. The description is as above. As to the method:
as §1
Turning to B1, the yeast fitness gain was inactive: 0.0584.

As for B2, the yeast fitness gain is inactive: -0.0902.

Turning to B3, the yeast fitness gain was inactive: -0.019.

For the molecule B4, the yeast fitness gain is inactive: -0.000879.

In a further experiment the target is SARS-CoV-2 ORF9Bwu (the 73-codon ORF). The description is as above. As to the method: as §1
On to B1, for which the yeast fitness gain is inactive: 0.0578.

In the case of B3, the yeast fitness gain was inactive: -0.0204.

A further experiment concerns the target SARS-CoV-2 S. The description is as above. On the procedure: as §1
For B1, the yeast fitness gain was inactive: -0.0169.

Consider B2, for which the yeast fitness gain is inactive: -0.219.

On to B3, for which the yeast fitness gain was inactive: -0.0124.

For B5, the yeast fitness gain is inactive: -0.0654.

Another experiment deals with SARS-CoV-2 NSP16. Described as above. On the procedure: as §1
As for B3, the yeast fitness gain is inactive: -0.058.

For another experiment, the target named is SARS-CoV-2 NSP9. The description is as above. On the procedure:
as §1
Turning to B5, the yeast fitness gain is inactive: -0.11.

Source of the values: the supplement of paper PMC11741623.
